Measured values: PubChem BioAssay AID686971 (National Center for Advancing Translational Sciences (NCATS), 2013)
The whole screen tested about 360,000 compounds, of which about 7,500 (2.1%) were called active. Inconclusive results, whose numbers are uncertain, are shown with a selection of clear calls. The call rests on the fitted dose curve; in most records, active means well fitted cell-killing curve with a large enough effect; inconclusive means small, poorly fitted or top-dose-only effect, or effect the other way, or another doubt; inactive means no such curve, though single readings can be large or run the other way. No potency is given beside an inconclusive call; the fits are too rough.

Experiment: qHTS for induction of synthetic lethality in tumor cells producing 2HG: qHTS for the HT-1080-IDH1KD cell line;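 on activity, negative = toxicity: 0% = DMSO wells and -100% = cell-free medium wells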
Conditions: HT-1080 IDH1 knockdown viability, ATP luminescence, 48 h; activity, negative = toxicity: at 46.1 µM (top of the series) unless noted
Outline: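 In this qHTS, HT-1080 cells depleted of IDH1 are exposed for 48 h at 37 °C to compound titrations. Toxicity is scored from CellTiter-Glo luminescence, with DMSO as full viability and medium alone as none.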
Potency means the concentration at half of the fitted maximal effect; tags describe the fitted curve by direction and shape.

| Compound | Potency | activity, negative = toxicity |
| --- | --- | --- |
| COc1ccccc1NCc1cc(=O)oc2c(C)c(O)ccc12 | inconclusive [cytotoxic, single point] | – |
| COc1ccc(NC(=O)c2cccc(NC(=O)C3C4CC5OC(=O)C3C5C4)c2)c(OC)c1 (stereo not drawn) | – | inactive: 17.3% |
| Cc1cc(F)ccc1S(=O)(=O)Nc1ncnc2scc(-c3ccc(F)cc3)c12 | inconclusive [cytotoxic, partial curve, poor fit] | – |
| C=CCNc1nc(Nc2ccccc2F)nc(OCC)n1 | – | inactive: 2.42% |
| COc1ccc(C(=O)Nc2ccc(N3CCOCC3)cc2)cc1OC | inconclusive [cytotoxic, single point] | – |
| O=C(CC(=O)c1ccccc1O)c1ccc(F)cc1 | inconclusive [cytotoxic, partial curve] | – |
| O=C(CSc1ncccc1-c1nc2ccccc2[nH]1)NCc1ccco1 | inconclusive [cytotoxic, single point] | – |
| CCOC(=O)Nc1ccc2c(c1)N(C(=O)CN1CCN(C)CC1)c1ccccc1S2 | inconclusive [cytotoxic, single point] | – |
| OC(COC(c1ccccc1)c1ccccc1)CN1CCCCC1 (stereo not drawn) | – | inactive: -3.42% |
| CC(=O)Nc1ccc(NC(=O)CCCCCN2C(=O)c3ccccc3C2=O)cc1 | – | inactive: 4.09% |
| COc1ccc(CCN2C(=O)c3[nH]nc(-c4ccccc4O)c3C2c2ccccc2)cc1OC (stereo not drawn) | active: 32.6 µM | – |
| COC(=O)/C(=C\Nc1ccc(Cl)cc1Cl)NC(=O)c1ccc(Cl)cc1Cl | inconclusive [cytotoxic, single point] | – |
| Cc1cc(O)c(NC(=O)c2cc([N+](=O)[O-])ccc2Cl)cc1C | inconclusive [cytotoxic, partial curve] | – |
| CCCCNC(=O)C1(C)CCCCN1C(=O)c1ccc2c(c1)CCO2 (stereo not drawn) | – | inactive: 28.3% |
| CN(C)S(=O)(=O)N1CCCC(C(=O)c2ccc(-c3ccccc3)c(F)c2)C1 (stereo not drawn) | inconclusive [cytotoxic, single point] | – |
| C=CCOc1ccc(CN(C)C(=O)c2ccc(CNS(=O)(=O)c3ccc(C)c(C)c3)cc2)cc1 | inconclusive [cytotoxic, single point] | – |
| CCn1c(N2CCN(S(=O)(=O)c3ccccc3)CC2)nc2ccccc21 | – | inactive: 1.39% |
| CC1CCc2cc(F)ccc2N1C(=O)CSc1nnc2c(n1)[nH]c1ccccc12 (stereo not drawn) | inconclusive [cytotoxic, partial curve] | – |
| CC(C)(C)Cc1c(-c2ccc(Cl)cc2)nc2ccc(Cl)cn12 | inconclusive [cytotoxic, single point] | – |
| CS(=O)(=O)NCCCNc1ccc(C(F)(F)F)cc1[N+](=O)[O-] | – | inactive: -9.76% |
| CCOC(=O)CC1(C)NC(=O)c2c(C)sc(C(=O)OCC)c2N1 (stereo not drawn) | – | inactive: -1.3% |
| CC(C)(C)c1ccc(-n2ncc3c2CCCC3NC(=O)C2(C(N)=O)CC2)cc1 (stereo not drawn) | – | inconclusive: -35% [cytotoxic] |
| COc1ccc2c(c1)-c1ccccc1S(=O)(=O)N2C(C)=O | inconclusive [cytotoxic, single point] | – |
| COc1ccc(NC(=O)C#Cc2ccccc2)cc1OC | active: 18.4 µM | – |

| Compound | Potency | activity, negative = toxicity |
| --- | --- | --- |
| C=CSc1sc(Cl)c(N2CCOCC2)c1[N+](=O)[O-] | inconclusive [cytotoxic, single point] | – |
| COc1ccc(NC(=S)Nc2nc(CC(=O)Nc3ccccc3OC)cs2)cc1 | active: 5.01 µM | – |
| O=[N+]([O-])c1ccc(Sc2ccncn2)c([N+](=O)[O-])c1 | active: 14.6 µM | – |
| CCCc1nc2ccc(C(=O)OC)cn2c1Cc1ccccc1C(F)(F)F | inconclusive [cytotoxic, single point] | – |
| CN(C(=O)COC(=O)/C=C/c1ccccc1)C1CCS(=O)(=O)C1 (stereo not drawn) | inconclusive [cytotoxic, single point] | – |
| COc1ccc2c(c1)CCc1c(C(=O)N3CCCC3)noc1-2 | inconclusive [cytotoxic, single point] | – |
| Fc1ccc(CCNC(=S)Nc2ccc(F)c(Cl)c2)cc1 | inconclusive [cytotoxic, single point] | – |
| CCOC(=O)C(=CNc1cc(C)ccc1C)C(=O)OCC | – | inactive: 13.7% |
| O=S(=O)(CCn1cccc1)CCn1cccc1 | – | inactive: 0.137% |
| CSc1ccccc1OCc1cc(C(=O)N(C)CCn2nc(C)cc2C)no1 | – | inactive: -6.84% |
| C=CCNC(=O)/C(C#N)=C/c1ccc(OS(=O)(=O)c2ccc(C)cc2)c(OC)c1 | inconclusive [cytotoxic, single point] | – |
| CCN(CC)S(=O)(=O)c1ccc2oc(SCC(=O)Nc3cc(C)on3)nc2c1 | inconclusive [cytotoxic, single point] | – |
| CCOC(=O)c1ccc(NC(=O)CSCc2ccco2)cc1 | inconclusive [cytotoxic, single point] | – |
| C=CCN(Cc1nc(-c2cc(OC)ccc2OC)oc1C)C1CCS(=O)(=O)C1 (stereo not drawn) | – | inactive: 3.8% |
| COC(=O)N1CCCCC1c1cc(C(=O)NCc2ccc(Cl)c(Cl)c2)no1 (stereo not drawn) | – | inactive: -20.9% |
| COc1cc(CNCCCN2CCOCC2)ccc1OCC(=O)Nc1cccc(C(F)(F)F)c1 | inconclusive [cytotoxic, single point] | – |
| Cc1ccc2cc(CN(Cc3ccc4c(c3)OCO4)Cc3nnnn3Cc3ccco3)c(=O)[nH]c2c1C | – | inactive: -5.79% |
| NC(=O)NC(=O)CN1C(=O)NC2(CCOc3ccccc32)C1=O (stereo not drawn) | – | inactive: 0.445% |
| Cc1nc(N2CCOCC2)c2c(C)c(C(=O)Nc3ccc(C(F)(F)F)cc3)sc2n1 | active: 20.6 µM | – |
| Cc1ccc(N(C(=O)Cn2nnc(-c3ccc(C)o3)n2)C(C(=O)NC2CCCC2)c2ccco2)cc1 (stereo not drawn) | inconclusive [cytotoxic, single point] | – |
| O=c1[nH]cncc1OCc1ccccc1 | – | inactive: 7.49% |
| CCc1cccc2c(C(=O)C(NC(C)CC)c3ccccc3)c[nH]c12 (stereo not drawn) | inconclusive [cytotoxic, partial curve] | – |
| O=C1CC(N2CCN(c3ccccc3)CC2)C(=O)N1c1ccc2c(c1)OCCO2 (stereo not drawn) | – | inactive: 18.3% |
| CC1CCCN(CCCNC(=O)c2ccc3c(c2)N(Cc2cccc(Cl)c2)C(=O)c2ccccc2S3=O)C1 (stereo not drawn) | inconclusive [cytotoxic, partial curve] | – |
